Our source for the binding signal (normalized occupancy) values is paper PMC4242493.

The other results are listed elsewhere or left out. The list includes weakly bound sequences.

This assay has as its target MaxL homodimer (UniProt P61244). The assay can be described thus: universal protein-binding microarray (PBM). As to conditions: PBS-based mixture, 10 nM His-tagged protein dimer, 2% milk, 200 ng/uL BSA, 50 ng/uL salmon testes DNA, 0.02% TX-100; detection with Alexa 488 anti-His …; high values mean tight binding; most listed sequences are background and not binding sites; double strand, one strand shown.
UniProt P61244, sequence (P61244 whole entry): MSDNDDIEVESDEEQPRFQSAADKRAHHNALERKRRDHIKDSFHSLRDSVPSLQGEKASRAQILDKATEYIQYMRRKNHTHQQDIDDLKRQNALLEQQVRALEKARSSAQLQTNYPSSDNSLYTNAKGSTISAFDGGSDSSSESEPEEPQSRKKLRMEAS
Turning to GAGCTGGA, the binding signal (normalized occupancy) was 0.0676.
For TGCTTAAA the value was 0.0691; for AATCTCGC, 0.0755; for AAAACCGT, 0.0751.
Turning to ATCTCTGA, the binding signal (normalized occupancy) is 0.0739.
As for ATGTTTGC, the binding signal (normalized occupancy) turned out to be 0.0794.
With AGGATGAG, the binding signal (normalized occupancy) was found to be 0.0759.
On to CTGGACAG, for which the binding signal (normalized occupancy) amounted to 0.0714.
In the case of GATGCTAA, the binding signal (normalized occupancy) is 0.0749.
Consider TTATCAAA, for which the binding signal (normalized occupancy) is 0.0749.
As to AGATAAAG, the binding signal (normalized occupancy) worked out at 0.0785.
In the case of CAATCATG, the binding signal (normalized occupancy) came to 0.0934.
Turning to TAGCGCTA, the binding signal (normalized occupancy) was 0.0685.
Then ACCCCGGA, with 0.0778; and ATTGGTAC, with 0.0731; and CGGATCCA, with 0.0788.
For GGCTCCGA the value was 0.0697; for AGCATTAC, 0.0776.
Turning to AACAGTCA, the binding signal (normalized occupancy) came out at 0.0748.
Consider CCTTGCCA, for which the binding signal (normalized occupancy) came to 0.0742.
ACTGGGCG: the binding signal (normalized occupancy) came out at 0.0763.
Turning to GAGCCAAC, the binding signal (normalized occupancy) was found to be 0.0754.
In the case of ACCGTATA, the binding signal (normalized occupancy) came out at 0.0805.
For ATATGTTA the value was 0.0924.
For the sequence TCCGCCCA, the binding signal (normalized occupancy) turned out to be 0.0771.
As to GGTCCAAA, the binding signal (normalized occupancy) came out at 0.0751.
For ACTGTAGG the value was 0.0763; for CCACGTTC, 0.0913; for AGCTTCCC, 0.0721.
On to GCCGAGAA, for which the binding signal (normalized occupancy) amounted to 0.0694.
In the case of CCCAAGTA, the binding signal (normalized occupancy) stood at 0.0738.
Consider AGATGCAT, for which the binding signal (normalized occupancy) came to 0.0784.
For the sequence ATGTAAGG, the binding signal (normalized occupancy) stood at 0.0888.
For the sequence GCACCTGC, the binding signal (normalized occupancy) turned out to be 0.0846.
Regarding TACATAGA, the binding signal (normalized occupancy) came to 0.0824.
Then CGTGCAAC, with 0.0887; and CATGATGG, with 0.0946; and TTAAGCAA, with 0.073.
Take CGTGAACG: the binding signal (normalized occupancy) is 0.079.
As to CTGAGGGC, the binding signal (normalized occupancy) was found to be 0.0664.
In the case of GTAAAGCA, the binding signal (normalized occupancy) amounted to 0.0781.
For AATTTGCT the value was 0.0701; for GCCAGCAC, 0.0723.
Turning to CTTACATC, the binding signal (normalized occupancy) is 0.0759.
AACTATGT: the binding signal (normalized occupancy) stood at 0.0762.
Turning to GGCAGCCA, the binding signal (normalized occupancy) amounted to 0.0739.
Then GCACCGCA, with 0.0714; and CTCCCAAA, with 0.0695.
On to ACCCCTGG, for which the binding signal (normalized occupancy) is 0.0728.
For AACGGTAA, the binding signal (normalized occupancy) is 0.0772.
For ACTGGTAC the value was 0.0756; for CTTGAACA, 0.0715; for GGTCACAC, 0.0831.
For CCTGGAGA the value was 0.0689; for TCATTACA, 0.0825.
Regarding CTAGCCGA, the binding signal (normalized occupancy) was found to be 0.0669.
As to ACTCGACC, the binding signal (normalized occupancy) was determined as 0.0734.
For AGATCGGG the value was 0.0711; for TAGCTCCA, 0.0712; for ATGGTGAC, 0.0841.
For the sequence GAAGAGTA, the binding signal (normalized occupancy) was 0.0718.
For AAACCTTG the value was 0.0721.
Regarding CACGGGTA, the binding signal (normalized occupancy) stood at 0.0895.
On to AGAGAAAA, for which the binding signal (normalized occupancy) worked out at 0.0707.
Regarding AGCTCACA, the binding signal (normalized occupancy) was determined as 0.0815.
Then ATGAGCAG, with 0.081.
With CGCAGTAC, the binding signal (normalized occupancy) was found to be 0.0724.
Regarding GCCGGGCC, the binding signal (normalized occupancy) stood at 0.064.
In the case of CTCTAAAA, the binding signal (normalized occupancy) worked out at 0.0687.
Consider TCGCTCCA, for which the binding signal (normalized occupancy) is 0.0738.
For CTACCGTC, the binding signal (normalized occupancy) was determined as 0.0713.
With CAGAATGA, the binding signal (normalized occupancy) is 0.0757.
Then CCCGCAGA, with 0.0735.
For the sequence GGGGAGTA, the binding signal (normalized occupancy) came to 0.0803.
Turning to CGGCGCTA, the binding signal (normalized occupancy) was determined as 0.0673.
On to GCGTAACC, for which the binding signal (normalized occupancy) came out at 0.0809.
For CCGACCGG, the binding signal (normalized occupancy) amounted to 0.066.
On to AAAGGTAA, for which the binding signal (normalized occupancy) was determined as 0.0723.
In the case of ACATTAGC, the binding signal (normalized occupancy) was 0.0803.
Take CACTAGTA: the binding signal (normalized occupancy) was 0.077.
Regarding CGCAATTC, the binding signal (normalized occupancy) is 0.074.
Take AGATGGCA: the binding signal (normalized occupancy) was 0.0763.
Turning to AAACACAT, the binding signal (normalized occupancy) was found to be 0.0922.
Then CAGTCAAA, with 0.0697; and ATGGCTAC, with 0.082; and AGTAACAT, with 0.0861.
For ACTGGCCT the value was 0.073.
For AATGAGGA the value was 0.0838.
Take AATAACTG: the binding signal (normalized occupancy) came to 0.0777.
On to AGCAGGGA, for which the binding signal (normalized occupancy) stood at 0.0689.
In the case of GATTAGCA, the binding signal (normalized occupancy) was found to be 0.076.
Regarding CGTTAGTA, the binding signal (normalized occupancy) worked out at 0.0742.
Turning to ATCAGCAT, the binding signal (normalized occupancy) amounted to 0.0875.
For CAGTGCCA the value was 0.0744; for ATAGAGCA, 0.0801; for CCTGCTTA, 0.077.
On to GACGGCCA, for which the binding signal (normalized occupancy) was 0.0729.
For the sequence CTAAGCGC, the binding signal (normalized occupancy) is 0.0684.
With AGCCAAGG, the binding signal (normalized occupancy) worked out at 0.0712.
Take CGGAGTTA: the binding signal (normalized occupancy) is 0.068.
Regarding GCCCTCGC, the binding signal (normalized occupancy) turned out to be 0.0764.
Regarding GATCTACA, the binding signal (normalized occupancy) is 0.0754.
As for CCAGAAAG, the binding signal (normalized occupancy) came to 0.0697.
With CTGGAAAA, the binding signal (normalized occupancy) amounted to 0.071.
For CTGGACGA the value was 0.0734; for TGGATACA, 0.0858; for CACGAAAA, 0.077.
In the case of GTCAGCAA, the binding signal (normalized occupancy) worked out at 0.0749.
Then AGTTGCAA, with 0.071; and CACTAGAG, with 0.0713; and GTCTTGTA, with 0.0743.
Turning to CCTCTATA, the binding signal (normalized occupancy) stood at 0.0791.
GGACAATA: the binding signal (normalized occupancy) came out at 0.0766.
For the sequence TCAGTAGA, the binding signal (normalized occupancy) worked out at 0.0737.
Then CATAACGG, with 0.0767; and TCTAGCCA, with 0.0723; and GATGAAAC, with 0.0811.
For GAACCAAA the value was 0.0723.
On to CAGAAAAG, for which the binding signal (normalized occupancy) is 0.0707.
For AGCGGTCG, the binding signal (normalized occupancy) stood at 0.0685.
For the sequence CTGGAACA, the binding signal (normalized occupancy) turned out to be 0.0768.
In the case of CAGTAACA, the binding signal (normalized occupancy) is 0.0736.
For ATAGGACC the value was 0.0826.
GCGTCAGA: the binding signal (normalized occupancy) came out at 0.0724.
As for ACAGAGCT, the binding signal (normalized occupancy) was found to be 0.0706.
Regarding CCCCTGCC, the binding signal (normalized occupancy) came out at 0.0784.
With ACAAACGA, the binding signal (normalized occupancy) came to 0.0724.
Then ACACAACA, with 0.0738.
AAATAACG: the binding signal (normalized occupancy) stood at 0.0835.
Take ATCCAAGG: the binding signal (normalized occupancy) was determined as 0.071.
With ACCAGTAG, the binding signal (normalized occupancy) is 0.0677.
Take AAGATTCG: the binding signal (normalized occupancy) turned out to be 0.0704.
For ATGTGAAA the value was 0.0872.
Then ACTGCTCC, with 0.0737.
On to AGAAATCG, for which the binding signal (normalized occupancy) was 0.0655.
Consider AGCGCAGA, for which the binding signal (normalized occupancy) was 0.0694.
AGAAGTTG: the binding signal (normalized occupancy) was 0.0718.
GATGTACA: the binding signal (normalized occupancy) is 0.0827.
As to AAGCGATG, the binding signal (normalized occupancy) came to 0.0743.
Turning to ATCTCTAA, the binding signal (normalized occupancy) was determined as 0.072.
For the sequence GAACAAGA, the binding signal (normalized occupancy) turned out to be 0.0749.
Turning to CACTCATG, the binding signal (normalized occupancy) is 0.0894.
In the case of ACACTAAG, the binding signal (normalized occupancy) was 0.0752.
For the sequence CAAATCGA, the binding signal (normalized occupancy) was determined as 0.0705.
On to CGGTACGA, for which the binding signal (normalized occupancy) came to 0.0718.
For the sequence ACTCCAAT, the binding signal (normalized occupancy) came out at 0.0703.
CCTTACCG: the binding signal (normalized occupancy) was 0.0666.
For CACCGATG the value was 0.0772; for ACCCATGC, 0.108.
As to GATCGTAC, the binding signal (normalized occupancy) turned out to be 0.0747.
Then TCTCGAGA, with 0.0789.
For the sequence CGACGCCC, the binding signal (normalized occupancy) came to 0.0727.
As for CCGCGACA, the binding signal (normalized occupancy) was found to be 0.0737.
For GACAAATC, the binding signal (normalized occupancy) stood at 0.0766.
Take CAAGGTTC: the binding signal (normalized occupancy) was determined as 0.0697.
In the case of CGCGGGCA, the binding signal (normalized occupancy) turned out to be 0.0751.
In the case of AAGAGCCC, the binding signal (normalized occupancy) was 0.0665.
Then AACGACGG, with 0.0774; and AAACCTCT, with 0.0716; and ACTCATAA, with 0.0817.
Consider AAACCGCG, for which the binding signal (normalized occupancy) is 0.0734.
As to AGCAGGGG, the binding signal (normalized occupancy) amounted to 0.0745.
Take AGGTTTGA: the binding signal (normalized occupancy) was determined as 0.0746.
On to AAGAGGTG, for which the binding signal (normalized occupancy) turned out to be 0.0728.
On to GGGATCGA, for which the binding signal (normalized occupancy) was found to be 0.0761.
For GGTGAGAC, the binding signal (normalized occupancy) is 0.0786.
For GACAGGGA the value was 0.072; for TGGCTAAA, 0.074.
GGAGTAAA: the binding signal (normalized occupancy) came to 0.0761.
GGAACGGA: the binding signal (normalized occupancy) is 0.0714.
For the sequence AAGTTAGC, the binding signal (normalized occupancy) is 0.0702.
For the sequence CTTTGTCC, the binding signal (normalized occupancy) was found to be 0.0747.
